Values after ≈ are worked out from the molar mass of the structure shown. Read-outs that look alike come from different tables or passages of the source.
Assays:
[1] = tested on: S. aureus ATCC 33591; type: cell-based, Staphylococcus aureus
Method: (§1) Fresh cultures were used in antimicrobial assay. […] Moreover MBC was evaluated. […] All experiments were conducted in triplicate.

[2] = tested on: A. baumannii ATCC BAA 1605; type: cell-based, Acinetobacter baumannii; conditions: triplicate; for A. baumannii ATCC BAA 1605 MIC: second experimental round, broth microdilution (CLSI), Mueller-Hinton Broth, 0.5 × 10^5 CFU/mL, 1-[…], 18 h at 37 °C; for A. baumannii ATCC BAA 1605 MBC: second round, MIC well and two higher concentrations seeded on agar plates, no visible colonies
Method: as §1

[3] = tested on: P. aeruginosa ATCC 9027; type: cell-based, Pseudomonas aeruginosa; conditions: triplicate; for P. aeruginosa ATCC 9027 MIC: second experimental round, broth microdilution (CLSI), Mueller-Hinton Broth, 0.5 × 10^5 CFU/mL, 1-[…], 18 h at 37 °C; for P. aeruginosa ATCC 9027 MBC: second round, MIC well and two higher concentrations seeded on agar plates, no visible colonies
Method: as §1

[4] = tested on: Sheep red blood cells; assay: Hemolysis assay (HC50); type: cell-based; conditions: for HC50 (µM/ml): sheep erythrocytes, recalculated from μg/mL values, estimated as in https://pubmed.ncbi.nlm.nih.gov/29307075/; for HC50: sheep red blood cells 4% (v/v) in PBS, peptides 1-[…], 60 min at 37 °C, hemoglobin release at 590 nm, 1% Triton-X 100 = 100% hemolysis, triplicate, HC50 by ic50.tk
[5] = tested on: E. coli ATCC 25922; type: cell-based, Escherichia coli
Method: as §1

[6] = tested on: E. coli ATCC 43827; type: cell-based, Escherichia coli
[7] = second experimental round, broth microdilution (CLSI), Mueller-Hinton Broth, 0.5 × 10^5 CFU/mL, 1-[…], 18 h at 37 °C, triplicate
[8] = second round, MIC well and two higher concentrations seeded on agar plates, no visible colonies, triplicate
[9] = Supplementary Data 5F, analogue generation without additional preselection
[10] = first experimental round, broth microdilution (CLSI), Mueller-Hinton Broth, 0.5 × 10^5 CFU/mL, 1-[…], 18 h at 37 °C, triplicate

Row | SMILES | S. aureus ATCC 33591 MIC [1, 7] [µg/mL] | S. aureus ATCC 33591 MBC [1, 8] [µg/mL] | A. baumannii ATCC BAA 1605 MIC [2] [µg/mL] | A. baumannii ATCC BAA 1605 MBC [2] [µg/mL] | P. aeruginosa ATCC 9027 MIC [3] [µg/mL] | P. aeruginosa ATCC 9027 MBC [3] [µg/mL] | HC50 (µM/ml) [4] [µM/ml] | HC50 [4] [µg/mL] | E. coli ATCC 25922 MIC [5, 7] [µg/mL] | E. coli ATCC 25922 MBC [5, 8] [µg/mL] | E. coli ATCC 43827 MIC [6, 7] [µg/mL] | E. coli ATCC 43827 MBC [6, 8] [µg/mL] | S. aureus ATCC 33591 MBC ([1]; Supplementary Data 5D/5E) [µg/mL] | S. aureus ATCC 33591 MIC ([1]; Supplementary Data 5D/5E) [µg/mL] | E. coli ATCC 25922 MBC ([5]; Supplementary Data 5D/5E) [µg/mL] | E. coli ATCC 25922 MIC ([5]; Supplementary Data 5D/5E) [µg/mL] | E. coli ATCC 43827 MBC ([6]; Supplementary Data 5D/5E) [µg/mL] | E. coli ATCC 43827 MIC ([6]; Supplementary Data 5D/5E) [µg/mL] | further results
1 | CC[C@H](C)[C@H](N)C(=O)NCC(=O)N[C@@H](CCCCN)C(=O)N[C@@H](CC(C)C)C(=O)N[C@@H](Cc1ccccc1)C(=O)N[C@@H](CCCCN)C(=O)N[C@@H](CCCNC(=N)N)C(=O)N[C@H](C(=O)N[C@@H](Cc1c[nH]cn1)C(=O)N[C@@H](CC(C)C)C(=O)N[C@@H](CCCNC(=N)N)C(=O)N[C@H](C(=O)N[C@@H](CCCCN)C(=O)N[C@@H](CCCNC(=N)N)C(=O)N[C@@H](Cc1ccccc1)C(=O)N[C@@H](CC(C)C)C(=O)N[C@@H](CCCNC(=N)N)C(=O)N[C@@H](CCC(=O)O)C(=O)N[C@@H](CC(C)C)C(=O)N[C@H](C(=O)N[C@@H](CCCNC(=N)N)C(=O)N[C@@H](CCC(N)=O)C(=O)N[C@@H](CC(C)C)C(=O)N[C@@H](CCCNC(=N)N)C(N)=O)C(C)C)[C@@H](C)CC)[C@@H](C)CC [OP-145-TI3] | >512 | >512 | 64 | 64 | >512 | >512 | 118 | 512 | 256 | 256 | 256 | 512 |  |  |  |  |  |  | S. aureus ATCC 33591 MBC [1]: >512 µg/mL; S. aureus ATCC 33591 MIC [1]: >512 µg/mL; E. coli ATCC 25922 MBC [5]: 256 µg/mL; E. coli ATCC 25922 MIC [5]: 256 µg/mL; E. coli ATCC 43827 MBC [6]: 512 µg/mL; E. coli ATCC 43827 MIC [6]: 256 µg/mL
2 | CC[C@H](C)[C@H](NC(=O)[C@H](CCCCN)NC(=O)[C@H](CCCCN)NC(=O)[C@H](CC(C)C)NC(=O)[C@@H](NC(=O)[C@H](CCCCN)NC(=O)[C@@H](NC(=O)[C@H](C)NC(=O)[C@@H](NC(=O)[C@H](Cc1c[nH]cn1)NC(=O)CNC(=O)[C@H](C)NC(=O)[C@H](CC(C)C)NC(=O)[C@H](CC(=O)O)NC(=O)[C@H](CCCCN)NC(=O)[C@H](C)NC(=O)[C@H](C)NC(=O)CNC(=O)[C@H](CCCCN)NC(=O)[C@H](CC(C)C)NC(=O)[C@H](CC(C)C)NC(=O)[C@H](CCC(=O)O)NC(=O)[C@H](CC(C)C)NC(=O)[C@@H](NC(=O)CN)C(C)C)C(C)C)[C@@H](C)O)C(C)C)C(N)=O [Syphaxin-TI4] | >512 | >512 | 64 | 128 | >512 | >512 | 152 | >512 | 256 | 256 | 512 | 512 |  |  |  |  |  |  | 
3 | CC[C@H](C)[C@H](N)C(=O)N[C@@H](CC(C)C)C(=O)N[C@@H](CCCNC(=N)N)C(=O)N[C@@H](CCCCN)C(=O)N1CCC[C@H]1C(=O)N[C@@H](Cc1c[nH]c2ccccc12)C(=O)N[C@@H](CCCNC(=N)N)C(=O)N[C@H](C(=O)N[C@@H](Cc1c[nH]c2ccccc12)C(=O)N[C@@H](CCCNC(=N)N)C(=O)N[C@@H](CCCNC(=N)N)C(N)=O)[C@@H](C)CC [Omiganan-TII12] | 512 | >512 | >512 | >512 | 512 | >512 | >226 | >512 | 64 | 512 | 64 | 128 | >512 | 512 | 512 | 64 | 128 | 64 | 
4 | CC[C@H](C)[C@H](NC(=O)CN)C(=O)NCC(=O)N[C@@H](CCCCN)C(=O)N[C@@H](Cc1ccccc1)C(=O)N[C@@H](CC(C)C)C(=O)N[C@@H](CCCCN)C(=O)N[C@@H](Cc1ccccc1)C(=O)N[C@@H](C)C(=O)N[C@@H](CC(C)C)C(=O)N[C@@H](CCCCN)C(=O)N[C@@H](CCCCN)C(=O)NCC(=O)N[C@@H](CC(C)C)C(=O)NCC(=O)N[C@@H](CC(C)C)C(=O)N[C@H](C(=O)N[C@@H](CC(C)C)C(=O)N[C@@H](CCCCN)C(=O)N[C@@H](Cc1ccccc1)C(=O)N[C@@H](CCCCN)C(=O)N[C@@H](CC(C)C)C(N)=O)C(C)C [Hydraganan-2] | 32 | 32 | 32 | 32 | 128 | 256 |  | >512 | 128 | 128 | 128 | 128 | 32 | 32 | 128 | 128 | 128 | 128 | E. coli ATCC 25922 MIC [5, 9]: 16 µg/mL; MIC E. coli ATCC 25922 [5, 10]: 16 µg/mL (≈ 6.62 µM); E. coli ATCC 43827 MIC [6, 9]: 16 µg/mL; MIC E. coli ATCC 43927 [6, 10]: 16 µg/mL (≈ 6.62 µM)
5 | CC[C@H](C)[C@H](NC(=O)[C@H](CCCCN)NC(=O)[C@H](CCCCN)NC(=O)[C@@H](NC(=O)[C@@H](NC(=O)[C@H](CCCCN)NC(=O)[C@@H](NC(=O)[C@H](C)NC(=O)[C@H](CC(C)C)NC(=O)[C@H](Cc1c[nH]cn1)NC(=O)CNC(=O)[C@H](C)NC(=O)[C@H](CC(C)C)NC(=O)[C@H](CC(=O)O)NC(=O)[C@H](CCCCN)NC(=O)[C@H](C)NC(=O)[C@H](C)NC(=O)[C@H](CO)NC(=O)[C@H](CCCCN)NC(=O)[C@H](CC(C)C)NC(=O)[C@H](CC(N)=O)NC(=O)[C@H](CC(=O)O)NC(=O)[C@H](CC(C)C)NC(=O)[C@@H](NC(=O)CN)C(C)C)[C@@H](C)O)C(C)C)[C@@H](C)CC)C(N)=O [Killixin] |  | 8 | 16 | 16 | 64 | 128 | 22 | 76 | 32 | 32 | 32 | 32 |  |  |  |  |  |  | 

From PMC10017685 (Nature Communications, 2023)
